The source of these data is the supplement of paper PMC12632987.

B1: GBRAP_128_3483 (protein)
chain: SVEEAVEKVKELMEKIKESSLEEVEEISREIVELLGSLNDEEAEAAAEVIKEMLPELSAEKLEIIADVLRENRGKLDPYKANLANDIAVEALNEALEKEE
B2: GBRAP_9_7119 (protein)
chain: LEELIEKLKEVVEDAIEDMSLAIPRISEEMKEKFLKRVRELAEELKKDKTKTPEEIKERFKELLREILEEVKKIVDEEEAKIAEAIRLTAEVEIDEIVEE
B3: GBRAP_166_4934 (protein)
chain: NLEEIIKETKEKVVELAKEAAELDREGVIEKAIEIRDLLEEAKKAGASKEELKEILLEAIKTLADNPELARELLRLIEAATDMDEELIDVIDEVRAEFEA
B4: GBRAP_53_6416 (protein)
chain: AAEKIEKLKEEIRALAKAAAAADAATRAKLTKEIAAKLAELKAAGMPDEELTALAKEVAKLLKEAGAPASDLVTLANALAALGLEEGTAEVAELAVEELE
B5: GBRAP_128_3590 (protein)
chain: SVEAVRAETRALLEAMKTADEAERRALAEELARRFLTLTPEEREAMAEEIEERLPELSEEDLEILADAFRAARPLADPETANLLADIEVAALNEAEEKSE
B6: GBRAP_128_3531 (protein)
chain: SVEEAKAYAKEVVEKIKASDVETAAKITAEFLEKLKTWTDEEVEAAVEVLEERAPELTAEKLETVADVIRKNRGKFTPEKQNHLAGLEVELLNEAEEKEE
B7: GBRAP_52_6172 (protein)
chain: AAAEAAARAAALLAAVRAGDEARVRALIREIAETMSDAEIAATLDAIAAAVPALSPEDQERVVEAALELEDVAEAAGHDPEILDVAVARVAGAAYDALQA
B8: GBRAP_80_6845 (protein)
chain: AEARLAAALAELKALLPEVAADIEEAVELAKELGVPDEDIADLLEALAELAKLDPEKAAELIKELLEDLKELKKEGDSEGALAVVRGYAGLALMEAEELE
B9: GBRAP_125_3035 (protein)
chain: SMEQDIEDLGLLARALGLSEEDVEELKELARRHGVKGTLIALLLAEGWEEIAELAEKLSEEEVIEVLKELAEYLEKHPDLTPEEVKEKLKELLEKAVEKS
B10: GBRAP_52_6346 (protein)
chain: MEEKLKKLAEELVELVKEGKLEEARKKAKEIVETLSEEEIEKLAEELAKLAKTADKETAEAILEAAEILADEMIEAGYDEYKASYLLALVGKAVYENLQK
B11: GBRAP_9_7148 (protein)
chain: MEELIEKMEEIFRDMVALVREIVPPEVHPVVDAMEEEARERFEEMREDEEITEEEAVEEAKELVRDFRDAVAARVDPETARMVDAVALTAELEIEELREE
B12: GBRAP_139_3700 (protein)
chain: SELEKKIEEARELTRKMEENPEESIEKIVELIKNSSLEEAEKIVEAIAEELSKLPLDKAEEYADKILEKVEEEIEDEDKVDLVEAILNGALARKAYEEEL
B13: GBRAP_184_5174 (protein)
chain: KVLEFTVRAENVEEMRAKMAEIAAAVAGTNADLYIIVETPEVTVEMARALMDGVAAIKAAGYATRITVHVTGDVDEEVADVLVERARAAGVQVVLALKEE
B14: GBRAP_35_5609 (protein)
chain: DSMKETVEMLVATIEDLTLAVPDMPVEDLVAITTQLVDSAEKVIDELTDDKEGAEKLLKALEKLLKALEKYHGDDPLAQEAIKRVKEAIEKAKKRIEEIK
B15: GBRAP_160_4399 (protein)
chain: SEEYEKLKKEVKEIFEEAIKLIEGETPEQRKTIIRVSFGDVILEAIENEGISDEEEEEIDKILDEYEEKALKAVEEGLEAVIEVLKEAEEKVLKKIEELE
B16: GBRAP_11_2625 (protein)
chain: EKEIKKKMAELAKKLAELLEKLLKEGVDNEELIKEAEKTLKELKELVEKYGDEAEKKQVEILEEEFEKSLKDKENAEKYFEEALAAARVLAGDYLLEIEE
B17: GBRAP_39_5670 (protein)
chain: EEEEELELEVSYLEAVAAKYLYETGISLEEAYKEAKKILKEYAKKHPELKELVEELIKLADEKGEEAKLVAIGVAKLIEEGAPLEEIKEKIEKAVEYFKS
B18: GBRAP_160_4169 (protein)
chain: SEKVEKAKEEINEIFDEAKAMIVGQTAAERAAIVAVAFGEIILLLEEMGLLTDELDKTIRELEDELVSTILANPDLTDAEITALLNEAKEKLFEALEKSS
B19: GBRAP_11_2807 (protein)
chain: KKEKLEEALKLAEEAAKAVEKLLKEGVDNEELLKKIEKLLEELEKLAKEYLDEGSQKLVEIAKELLEKAKADPENAKAYLEQLLATLRVLAGNIQLEIEE
B20: GBRAP_159_3961 (protein)
chain: MEEKLKALAEELRKLGASEEIIETFVEALELELEGEPKESVAAYLLHAYSTLGASVEQILKALSFLSPETAKYVAEVLADYAKEQGKEEDAKKFEEFLEK
B21: GBRAP_128_3179 (protein)
chain: SLEEVKKRTREAMERIKNSSPEEARRIAEELFEWLKTLSLEEAEAAVEEILKLLPELTPEHLEILADVAREMRPLYTPEKQELVAELEVEALNRLEELEE
B22: GBRAP_117_2598 (protein)
chain: SMTEEEAKKLVKEAVELIKEAIKKQKELSPEEAKKLKEETLKKLTEIVEKLLELVDYDTLEELFAEALKPLSPEEQVQAYILWEEALAEAEERRKEEEEA
B23: GBRAP_52_6263 (protein)
chain: MREELRAAAEEIFNLVKAGRLEEARALARELVESLDEEELELFIEEFAELAKTIKKEEIPYMEKTTEIVAEEMEEAGVPEELVSLFEARSYGALYEREQK
B24: GBRAP_78_6728 (protein)
chain: ELEELIEKAIEHLNEAAKLASKLPLEEGNEILDLLVDAITDLEEAEEEGGDLELLEEALKHVEKALELAKKLNLPEAKELAEELEKAKELLKKAIELAKK
B25: GBRAP_196_5417 (protein)
chain: SALAEIEKLEAESAAETKGKKLGDWTIVMAATPENLEKVAKETAEIAKDLGNPTIELVVPGTLEEALKALKLLREELKKAGVVSEIRVASEAIEAAKAAA
B26: GBRAP_160_4165 (protein)
chain: MEKLEEAKKEIKEIFEEAAEMMKGQSAEERANIVRVAFGEIRLLLEEKGLLTDEVDEALDKIEEEVVTTILENPDLTDEELEELLKEALEKLFEALEKSY
B27: GBRAP_128_3546 (protein)
chain: SLEEAKALAEKAVEEIKASDVETARKITKELLETLKTKSLEEVEAAVETLKANLPTLTAEKLDAVADAIEEERGKFSPEVQELLADLEVEALNLAEELEE
B28: GBRAP_39_5714 (protein)
chain: DEEEELELLASYLEAEFAKEQYERGISDEEAIAEGMAFMRELAEANPEYKERIEALIKRAEELGPEAKRVLAAAAAGIRAGMPLEEALAVAEYEFEKLEA
B29: GBRAP_160_4294 (protein)
chain: SETLEKAKKLIDETFEETYELMEGESAENRAVIVDVELGSLIYELSELPEVSDEALDKIDEIRDELVAHILANPDLTPEELKALLEEAREKIKEILEKDF

In all, about 4,500 sequences were measured (“median log2 fold change of GCK-ALFA target abundance (FLAG IP / Myc IP barcode read proportion)”: median about 0.078, lowest 2% from about -0.6 on). This is one part of the list.

Chain of GABARAP, O95166 (O95166 whole entry, the tested form may be a part): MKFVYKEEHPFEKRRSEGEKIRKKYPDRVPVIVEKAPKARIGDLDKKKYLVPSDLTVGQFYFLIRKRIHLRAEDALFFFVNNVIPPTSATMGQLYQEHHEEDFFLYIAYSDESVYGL

This assay addresses GABARAP, O95166. The experiment in a line: median log2 fold change of GCK-ALFA target abundance (FLAG IP / Myc IP barcode read proportion) (log2 ratio); each designed protein is fused to an ALFA-tag nanobody in HEK293 cells to bring the named protein to FLAG-tagged glucokinase (GCK); Myc marks an untargeted standard; higher = target protein stabilised (more abundant). Conditions: target protein: 3xFLAG-MCP-GCK-ALFA reporter; HEK293 landing pad (RPLP). The method in brief: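 HEK293 landing-pad cells received a recombined binder library fused to the ALFA nanobody and were induced with 2 μg mL^−1 doxycycline, then transfected with a plasmid encoding a FLAG-tagged target and a Myc-tagged standard. Lysates were collected after 48 h for anti-FLAG and anti-Myc immunoprecipitation, and the circular RNA barcodes were reverse transcribed, amplified and sequenced. Target abundance for each binder is the median log2 ratio of FLAG to Myc barcode read proportions. Barcodes had to reach a proportion of at least 10^−7 in both replicates, each binder needed at least 3 barcodes per replicate, a pseudocount of 10^−6 was applied, and the two replicates were pooled.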
With B1, the “median log2 fold change” value was 0.173.
With B2, the “median log2 fold change” value came to 0.152.
The result for B3 reads 0.354.
On to B4, for which the “median log2 fold change” value is 0.279.
On to B5, for which the “median log2 fold change” value is 0.0581.
For the molecule B6, the “median log2 fold change” value is -0.0213.
For B7, the “median log2 fold change” value came to 0.00144.
Take B8: the “median log2 fold change” value was -0.057.
B9: the “median log2 fold change” value is -0.193.
Take B10: the “median log2 fold change” value is -0.0218.
With B11 the figure was -0.342.
For the molecule B12, the “median log2 fold change” value came to 0.139.
Turning to B13, the “median log2 fold change” value was -0.0716.
For B14, the “median log2 fold change” value came to 0.354.
On to B15, for which the “median log2 fold change” value was -0.425.
Take B16: the “median log2 fold change” value worked out at 0.332.
Take B17: the “median log2 fold change” value amounted to 0.137.
With B18 the figure was -0.285; with B19, 0.383.
Take B20: the “median log2 fold change” value was 0.177.
Take B21: the “median log2 fold change” value is 0.209.
On to B22, for which the “median log2 fold change” value was 0.263.
Regarding B23, the “median log2 fold change” value is -0.308.
Consider B24, for which the “median log2 fold change” value amounted to 0.131.
Take B25: the “median log2 fold change” value was 0.256.
With B26, the “median log2 fold change” value came out at 0.143.
For the molecule B27, the “median log2 fold change” value came to 0.281.
As for B28, the “median log2 fold change” value is 0.383.
For the molecule B29, the “median log2 fold change” value was -0.179.
